# This is one part of the list.
# B1: MAA (Maackia amurensis), P0DKL3 (protein)
# chain: MATSNSKPTQVLLATFLTFFFLLLNNVNSSDELSFTINNFVPNEADLLFQGEASVSSTGVLQLTRVENGQPQKYSVGRALYAAPVRIWDNTTGSVASFSTSFTFVVKAPNPDITSDGLAFYLAPPDSQIPSGSVSKYLGLFNNSNSDSSNQIVAVELDTYFAHSYDPWDPNYRHIGIDVNGIESIKTVQWDWINGGVAFATITYLAPNKTLIASLVYPSNQTTFSVAASVDLKEILPEWVRVGFSAATGYPTEVETHDVLSWSFTSTLEANCDAATENNVHIARYTA
# Legend:
# Assay in all cases: glycan array binding signal (z-score within array); higher = stronger binding
# Details in all cases: glycan notation: IUPAC condensed, linker removed
# [1] = target: Neu5Ac(a2-3)Gal(b1-3)GalNAc(b1-4)[Neu5Ac(a2-8)Neu5Ac(a2-3)]Gal(b1-4)Glc
# Outline: (§1)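 Negative Z-scores can be read as non-binding. The Z-score is calculated within each array and then averaged across arrays of one protein sequence at different concentrations or buffers and across linkers. Arrays, 3228 in all, were curated from the Consortium for Functional Glycomics database and kept only where the protein sequence was available.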
# [2] = target: Neu5Ac(a2-3)Gal(b1-3)GalNAc6S
# Outline: as §1
# [3] = target: Neu5Ac(a2-3)Gal(b1-3)GlcNAc
# Outline: as §1
# [4] = target: Neu5Ac(a2-3)Gal(b1-3)GlcNAc(b1-2)Man
# Outline: as §1
# [5] = target: Neu5Ac(a2-3)Gal(b1-3)GlcNAc(b1-2)Man(a1-3)[GlcNAc(b1-4)][Neu5Ac(a2-3)Gal(b1-3)GlcNAc(b1-2)Man(a1-6)]Man(b1-4)GlcNAc(b1-4)GlcNAc
# Outline: as §1
# [6] = target: Neu5Ac(a2-3)Gal(b1-3)GlcNAc(b1-2)Man(a1-3)[Neu5Ac(a2-3)Gal(b1-3)GlcNAc(b1-2)Man(a1-6)]Man(b1-4)GlcNAc(b1-4)GlcNAc
# Outline: as §1
# [7] = target: Neu5Ac(a2-3)Gal(b1-3)GlcNAc(b1-3)Gal(b1-3)GlcNAc
# Outline: as §1
# [8] = target: Neu5Ac(a2-3)Gal(b1-3)GlcNAc(b1-3)Gal(b1-4)GlcNAc
# Outline: as §1
# [9] = target: Neu5Ac(a2-3)Gal(b1-3)GlcNAc(b1-3)GalNAc
# Outline: as §1
# [10] = target: Neu5Ac(a2-3)Gal(b1-3)GlcNAc(b1-4)Gal(b1-4)Glc
# Outline: as §1
# [11] = target: Neu5Ac(a2-3)Gal(b1-3)GlcNAc(b1-6)GalNAc
# Outline: as §1
# [12] = target: Neu5Ac(a2-3)Gal(b1-3)GlcNAc6S
# Outline: as §1
# [13] = target: Neu5Ac(a2-3)Gal(b1-3)[Fuc(a1-4)]GlcNAc
# Outline: as §1
# [14] = target: Neu5Ac(a2-3)Gal(b1-3)[Fuc(a1-4)]GlcNAc(b1-3)Gal(b1-3)[Fuc(a1-4)]GlcNAc
# Outline: as §1
# [15] = target: Neu5Ac(a2-3)Gal(b1-3)[Fuc(a1-4)]GlcNAc(b1-3)Gal(b1-4)[Fuc(a1-3)]GlcNAc
# Outline: as §1
# [16] = target: Neu5Ac(a2-3)Gal(b1-3)[GlcNAc(b1-6)]GalNAc
# Outline: as §1
# [17] = target: Neu5Ac(a2-3)Gal(b1-3)[Neu5Ac(a2-3)Gal(b1-4)]GlcNAc
# Outline: as §1
# [18] = target: Neu5Ac(a2-3)Gal(b1-3)[Neu5Ac(a2-6)]GalNAc
# Outline: as §1
# [19] = target: Neu5Ac(a2-3)Gal(b1-3)[Neu5Ac(a2-6)]GlcNAc(b1-3)[Fuc(a1-3)[Gal(b1-4)]GlcNAc(b1-6)]Gal(b1-4)Glc
# Outline: as §1
# [20] = target: Neu5Ac(a2-3)Gal(b1-3)]Neu5Ac(a2-3)Gal(b1-4)]GlcNAc
# Outline: as §1
# [21] = target: Neu5Ac(a2-3)Gal(b1-4)Glc
# Outline: as §1
# [22] = target: Neu5Ac(a2-3)Gal(b1-4)GlcNAc
# Outline: as §1
# [23] = target: Neu5Ac(a2-3)Gal(b1-4)GlcNAc(b1-2)Man
# Outline: as §1
# [24] = target: Neu5Ac(a2-3)Gal(b1-4)GlcNAc(b1-2)Man(a1-3)[GlcNAc(b1-4)][Neu5Ac(a2-3)Gal(b1-4)GlcNAc(b1-2)Man(a1-6)]Man(b1-4)GlcNAc(b1-4)GlcNAc
# Outline: as §1
# [25] = target: Neu5Ac(a2-3)Gal(b1-4)GlcNAc(b1-2)Man(a1-3)[Neu5Ac(a2-3)Gal(b1-4)GlcNAc(b1-2)Man(a1-6)]Man(b1-4)GlcNAc(b1-4)GlcNAc
# Outline: as §1
# [26] = target: Neu5Ac(a2-3)Gal(b1-4)GlcNAc(b1-2)Man(a1-3)[Neu5Ac(a2-3)Gal(b1-4)GlcNAc(b1-2)Man(a1-6)]Man(b1-4)GlcNAc(b1-4)[Fuc(a1-6)]GlcNAc
# Outline: as §1
# [27] = target: Neu5Ac(a2-3)Gal(b1-4)GlcNAc(b1-2)Man(a1-3)[Neu5Ac(a2-6)Gal(b1-4)GlcNAc(b1-2)Man(a1-6)]Man(b1-4)GlcNAc(b1-4)GlcNAc
# Outline: as §1
# [28] = target: Neu5Ac(a2-3)Gal(b1-4)GlcNAc(b1-2)[Neu5Ac(a2-3)Gal(b1-4)GlcNAc(b1-4)]Man(a1-3)[GlcNAc(b1-4)][Neu5Ac(a2-3)Gal(b1-4)GlcNAc(b1-2)[Neu5Ac(a2-3)Gal(b1-4)GlcNAc(b1-6)]Man(a1-6)]Man(b1-4)GlcNAc(b1-4)GlcNAc
# Outline: as §1
# [29] = target: Neu5Ac(a2-3)Gal(b1-4)GlcNAc(b1-2)[Neu5Ac(a2-3)Gal(b1-4)GlcNAc(b1-4)]Man(a1-3)[GlcNAc(b1-4)][Neu5Ac(a2-3)Gal(b1-4)GlcNAc(b1-4)Man(a1-6)]Man(b1-4)GlcNAc(b1-4)GlcNAc
# Outline: as §1
# [30] = target: Neu5Ac(a2-3)Gal(b1-4)GlcNAc(b1-2)[Neu5Ac(a2-3)Gal(b1-4)GlcNAc(b1-6)]Man(a1-6)[Neu5Ac(a2-3)Gal(b1-4)GlcNAc(b1-2)Man(a1-3)]Man(b1-4)GlcNAc(b1-4)GlcNAc
# Outline: as §1
# [31] = target: Neu5Ac(a2-3)Gal(b1-4)GlcNAc(b1-2)[Neu5Ac(a2-3)Gal(b1-4)GlcNAc(b1-6)]Man(a1-6)[Neu5Ac(a2-3)Gal(b1-4)GlcNAc(b1-2)Man(a1-3)][GlcNAc(b1-4)]Man(b1-4)GlcNAc(b1-4)GlcNAc
# Outline: as §1
# [32] = target: Neu5Ac(a2-3)Gal(b1-4)GlcNAc(b1-3)Gal
# Outline: as §1
# [33] = target: Neu5Ac(a2-3)Gal(b1-4)GlcNAc(b1-3)Gal(b1-3)GlcNAc
# Outline: as §1
# [34] = target: Neu5Ac(a2-3)Gal(b1-4)GlcNAc(b1-3)Gal(b1-4)GlcNAc
# Outline: as §1
binder,measurement,setting,value
B1,glycan array binding signal (z-score),[1],-0.163
same,glycan array binding signal (z-score),[2],-0.26
same,glycan array binding signal (z-score),[3],-0.244
same,glycan array binding signal (z-score),[4],-0.025
same,glycan array binding signal (z-score),[5],-0.213
same,glycan array binding signal (z-score),[6],-0.016
same,glycan array binding signal (z-score),[7],-0.173
same,glycan array binding signal (z-score),[8],-0.264
same,glycan array binding signal (z-score),[9],-0.138
same,glycan array binding signal (z-score),[10],-0.175
same,glycan array binding signal (z-score),[11],-0.183
same,glycan array binding signal (z-score),[12],-0.161
same,glycan array binding signal (z-score),[13],-0.219
same,glycan array binding signal (z-score),[14],-0.21
same,glycan array binding signal (z-score),[15],-0.225
same,glycan array binding signal (z-score),[16],-0.229
same,glycan array binding signal (z-score),[17],-0.209
same,glycan array binding signal (z-score),[18],-0.213
same,glycan array binding signal (z-score),[19],-0.175
same,glycan array binding signal (z-score),[20],-0.254
same,glycan array binding signal (z-score),[21],0.13
same,glycan array binding signal (z-score),[22],0.599
same,glycan array binding signal (z-score),[23],-0.167
same,glycan array binding signal (z-score),[24],-0.106
same,glycan array binding signal (z-score),[25],1.17
same,glycan array binding signal (z-score),[26],0.779
same,glycan array binding signal (z-score),[27],0.052
same,glycan array binding signal (z-score),[28],0.383
same,glycan array binding signal (z-score),[29],0.479
same,glycan array binding signal (z-score),[30],-0.29
same,glycan array binding signal (z-score),[31],0.023
same,glycan array binding signal (z-score),[32],0.689
same,glycan array binding signal (z-score),[33],0.34
same,glycan array binding signal (z-score),[34],1.1

# From the supplement of paper PMC8728848
